The source of these data is publication PMC6345968, “Structural basis for species-selective targeting of Hsp90 in a pathogenic fungus” (Nature Communications, 2019).

Bounds are passed on as bounds.

Data set [1] has as its system S. cerevisiae expressing human Hsp90α. Type of data set: cell-based, Saccharomyces cerevisiae. As to conditions: isogenic strains. An excerpt: (§1) A critical consideration in the development of an effective antifungal is not just target binding, but also access to the target across microbial cell membranes and cell walls. Therefore, we evaluated the potency and selectivity of oxime analogs using drug susceptibility assays. We used strains of S. cerevisiae where both endogenous genes encoding isoforms of Hsp90 have been disrupted and growth is solely dependent upon C. albicans or human Hsp90 isoforms.
(§2) Antifungal tolerance and resistance were determined in flat bottom, 96-well microtiter plates using a modified broth microdilution protocol as described[8],[10]. All Hsp90 inhibitors were formulated in dimethyl sulfoxide (DMSO, Sigma Aldrich Co.); fluconazole was dissolved in sterile ddH2O. Each strain was tested in duplicate on at least two occasions. […] To test for fungicidal activity, cultures from MIC plates were spotted on YPD agar plates using a spotter (Frogger, V&P Scientific, Inc). Plates were photographed after 48 h of incubations at 30 °C.

Data set [2] has as its system S. cerevisiae expressing human Hsp90β. Type of data set: cell-based, Saccharomyces cerevisiae. To be noted: isogenic strains.
Excerpt: as §1, §2

Data set [3] deals with S. cerevisiae expressing C. albicans Hsp90 Leu130Ala/Phe131Tyr. The data set can be described thus: Broth microdilution growth inhibition, Hsp90 variant yeast. Type of data set: cell-based, Saccharomyces cerevisiae.
Excerpt: (§3) We tested their importance by generating three C. albicans Hsp90 variants with the native fungal residues changed to their corresponding human residues (Fig. 5a, b). The first variant was a single substitution, replacing fungal threonine with human glutamine at position 12 (Thr12Gln) located between the N-terminal β-strand and α-helix. […] The second variant involved two amino acid changes within α-helix 7 (Leu130Ala and Phe131Tyr) which were predicted to impact contact with the para-methoxybenzyl substituent.
as §2

Data set [4] concerns S. cerevisiae expressing C. albicans Hsp90 Lys158Ser/Thr162Arg. The data set is described as above. Type of data set: cell-based, Saccharomyces cerevisiae.
Excerpt: as §3, §2

Data set [5] has as its system S. cerevisiae expressing C. albicans Hsp90 Thr12Gln. The description is as above. The data set is classed as cell-based, Saccharomyces cerevisiae.
Excerpt: as §3, §2

The test system of data set [6] is C. albicans SN95. The data set can be described thus: Growth inhibition in culture. The data set is classed as cell-based, Candida albicans. As to conditions: 48-hour exposure.
Excerpt: (§4) We began by measuring inhibition of C. albicans growth in culture.
(§5) Each colored box represents the mean of duplicate determinations. Color scale for relative growth is provided to far right of panel, green: no inhibition to black: complete inhibition. […] Cultures were then fixed and stained by Periodic Acid-Schiff (PAS) technique to visualize fungal burden (dark red/purple signal) and underlying human cells (light pink signal). Representative fields from conventional light photomicrographs are presented at the same magnification in all panels. The experiment was repeated in two independent biological replicates to confirm results. Scale bar, 100 μm
as §2

Data set [7] deals with C. albicans clinical isolate CaCi-2. The data set can be described thus: Growth inhibition in culture. The data set is classed as cell-based, Candida albicans. As to conditions: 48-hour exposure.
Excerpt: as §4, §5, §2

A further data set relates to HEPG2 cells. The data set can be described thus: Mammalian cell toxicity, resazurin dye reduction. Type of data set: cell-based, human. To be noted: 3-day culture. In general terms: Resazurin is reduced to fluorescent resorufin, in cell work by metabolically active cells.
A further data set concerns Raw264.7 cells. The data set can be described thus: Mammalian cell toxicity, resazurin dye reduction. The data set is classed as cell-based, mouse. As to conditions: 3-day culture.
Data set [8] has as its system IL-1β secretion by Raw264.7 cells. The data set can be described thus: Cytokine production ELISA after C. albicans infection. Type of data set: cell-based, mouse. To be noted: 2 h pre-treatment, LPS primed. As for the experimental part: (§6) After 2 h incubation at 37 °C, medium was flipped off and wells washed two times with 200 μL of warm medium. During incubation of macrophages with Hsp90 inhibitor, a culture of C. albicans grown in YPD overnight at 30 °C was spun down and washed twice with PBS. Cell counts were then determined using a hemocytometer and an inoculum of 6 × 10^5 cells per well was added to the macrophages. Co-culture incubation time was 2 h for measuring secretion of TNF-α and 5 h for measuring IL-1β cytokine levels. To monitor IL-1β production, macrophages were primed with 50 ng/mL of LPS (Sigma; L2630) for 2 h prior to infection with C. albicans. At the end of each experiment 150 mL of media was removed and added to a new 96-well plate that contained a 25 µL of solution of 7× protease inhibitors in water. The plate was frozen and stored at −80 °C until measurement of cytokine levels using ELISA kits from R&D Systems: TNF-α DuoSet (DY410) and IL1-1β/IL-1F2 DuoSet (DY401).

Data set [9] relates to TNF-α secretion by Raw264.7 cells. The data set is described as above. Type of data set: cell-based, mouse. As to conditions: 2 h pre-treatment. As for the experimental part: as §6
The next data set deals with C. albicans CaCi-2. The data set can be described thus: Checkerboard with fluconazole, Bliss independence. Type of data set: cell-based, Candida albicans. As to conditions: 48 hours. As for the experimental part: Each colored box represents the mean of duplicate determinations. […] Error bars, SD.
as §2

Data set [10] has as its system C. albicans SN95. The data set can be described thus: Checkerboard with fluconazole then spotting on drug-free agar (fungicidal activity). Type of data set: cell-based, Candida albicans. As to conditions: 48 h liquid culture, then drug-free solid medium. As for the experimental part:
as §2

A short description of data set [11]: Single dose plasma pharmacokinetics. The data set is classed as in vivo, mouse. To be noted: mice, 40 mg/kg subcutaneous.
For the next data set, the system named is 3T3 cells. The data set can be described thus: Mammalian cell toxicity, resazurin dye reduction. As to conditions: 3-day culture.
The subject of data set [12] is GFP-marked C. albicans CaCi-2. The data set can be described thus: 384-well co-culture with fluconazole, fungal burden by GFP fluorescence. To be noted: Candida albicans, read-out: concentration for 50% reduction in the fungal burden.
Data set [13] has as its system 293T cells expressing luciferase. The data set can be described thus: 384-well co-culture with fluconazole, human cell survival by luminescence.

For the molecule `COc1ccc(CON=C2C=CC=CC3OC3CC(C)OC(=O)c3c(O)cc(O)cc3C2)cc1` (stereo not shown) [CMLD013075], the “activity compared with strain expressing C. albicans Hsp90” value in data set [1] and in data set [2] was “more active against a yeast strain engineered to express C. albicans Hsp90” in each case. In addition, the “change of potency relative to wild-type C. albicans Hsp90” value in [3] is “decreasing potency”; in data set [4], “did not alter the potency”; in data set [5] it was “did not alter the potency”. The single-agent growth inhibition entry (in the data set on C. albicans SN95 [6]; in data set [7]) was “comparable single-agent activity” each time. In addition, the “toxicity relative to ganetespib (less toxic)” value in the data set with HEPG2 cells is more than 50 fold. Besides, the “toxicity relative to radicicol (less toxic)” value in the data set with HEPG2 cells was more than 10 fold. Besides, the “toxicity relative to radicicol or ganetespib” value with Raw264.7 cells is recorded as “much less toxic than radicicol or ganetespib”. Moreover, in data set [8], the “suppression of IL-1β production” value is on record as “far less suppression than radicicol”. The “suppression of TNF-α production” value in data set [9] is reported as “far less suppression than radicicol”. In the data set with C. albicans CaCi-2, the “Bliss synergy δ with fluconazole” value is recorded as 13.0. In the data set on C. albicans SN95 [10], the “fungicidal activity in combination with FL” value is listed as “transformed the fungistatic azole into a fungicidal combination”. Besides, the “clearance from the systemic circulation” value in data set [11] was “relatively rapid clearance from the systemic circulation”. Moreover, the “cytotoxicity to 3T3 relative to HEPG2 (less cytotoxic)” value in the data set with 3T3 cells is “at least 10 fold”. Moreover, in data set [12], the EC50 was approximately 1000 nM. Further, in data set [13] (at 1 uM, reviewer's reading of Fig. 8b), the “reduction of human cell survival” value turned out to be 50%. The “toxicity to human cells in co-culture” value in data set [13] (with FL, 48 h) is “much less toxic than radicicol or ganetespib”.
